# PubChem BioAssay AID686978 (National Center for Advancing Translational Sciences (NCATS), 2013)
# The campaign covered roughly 420,000 compounds. About 64,000 (15%) were called active. The shares of active, inactive and inconclusive entries below differ from those in the screen. The call rests on the fitted dose curve; in most records, active means well fitted inhibition curve with a large enough effect; inconclusive means small, poorly fitted or top-dose-only effect; inactive means flat fitted curve, though single readings scatter. Potencies of inconclusive entries are left out as doubtful fits.
# Assay: qHTS for Inhibitors of human tyrosyl-DNA phosphodiesterase 1 (TDP1): qHTS in cells in absence of CPT; further: nearly all actives have a fitted effect of over 55% in size
# Conditions: DT40 Tdp1-/- hTDP1 cells, no CPT, ATP luminescence, 48 h; activity change, negative = growth inhibition: at 46.2 µM (top of the series) unless noted
# Method in brief: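 Camptothecin absent (DMSO only). Human TDP1-complemented DT40 knockout cells, 400 cells/well, 37 °C for minimum 48 hr; ATP measured via CellTiter-Glo, 30 min dark incubation, luminescence.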
# On the % scale 0 is the no-effect control and ±100 the full control effect; potency means the concentration at half of the fitted maximal effect; tags describe the fitted curve by direction and shape.
Structure (SMILES),Potency,"activity change, negative = growth inhibition"
NNC(=O)c1sc2cc(C(F)(F)F)cnc2c1-c1cccs1,inactive,
Cc1ccccc1CS(=O)(=O)CCC(=O)N1CCN(c2ccc(N3CCOCC3)nn2)CC1,inactive,
COc1ccc(C(=O)Nc2ccccc2C(=O)NCc2ccco2)cc1,,inconclusive: -30.8% [inhibitor]
CCN(CC)c1ccc(/C=N/NC(=O)c2ccc([N+](=O)[O-])cc2)cc1,inactive,
COc1ccc(-[n+]2c(C)cc(/C=C3\Sc4ccccc4N3C)cc2C)cc1,active: 0.0073 µM,
O=C(Nc1ccc2c(c1)CN(Cc1ccco1)CC2)C1CCCO1 (stereo unspecified),inactive,
COc1ccc(S(=O)(=O)c2c(Nc3ccccc3F)sc(C(=O)c3cccc(OC)c3)c2N)cc1,active: 6.51 µM,
CCc1ccc(NC(=O)NCCc2c(C)nn(C)c2C)cc1,"inconclusive [inhibitor, single point]",
CCOc1c(OC)cccc1C1CC(=O)Nc2cc3c(cc21)OCCO3 (stereo unspecified),"inconclusive [inhibitor, single point]",
Cc1cc2oc(C(=O)N(Cc3cccs3)C3CCS(=O)(=O)C3)cc(=O)c2cc1Cl (stereo unspecified),"inconclusive [inhibitor, partial curve, poor fit]",
CCc1ccc(NC(=O)CC2C(=O)NCCN2C(=O)c2ccc(F)cc2)cc1 (stereo unspecified),"inconclusive [inhibitor, partial curve]",
O=c1c2ccc(Cl)cc2nc(-c2cccc(C(F)(F)F)c2)n1O,active: 3.66 µM,
COCC1CCCN(Cc2nc(Cc3ccccc3)no2)C1 (stereo unspecified),,inconclusive: -30.9% [inhibitor]
Cc1cccc(NC(=O)CSc2nnc(NC(=O)Nc3ccccc3)s2)c1C,"inconclusive [inhibitor, single point]",
CC(C)CN1C(=O)C(=O)N(CC(=O)N2CCN(c3ccccc3)CC2)C1=O,inactive,
COc1cccc(C(=O)Nc2nc(SCc3ccc(Cl)cc3)n[nH]2)c1,inactive,
CCc1cc(Cn2nc(-c3ccccc3)cc2C(=O)NCc2cccs2)on1,"inconclusive [inhibitor, single point]",
Cc1ccc(-c2csc3nc(C)n(-n4c(C)ccc4C)c(=O)c23)o1,active: 20.6 µM,
Cc1ccc(NC(=O)CN2C(=O)NC(C)(c3ccc(Cl)cc3)C2=O)cc1 (stereo unspecified),,inconclusive: -36.5% [inhibitor]
CCOc1ccccc1CNC(=O)c1ccc(CS(=O)Cc2cccc(Cl)c2)o1 (stereo unspecified),active: 20.6 µM,
Cc1cc(-c2nnc(SCC(=O)Nc3nc(-c4ccccc4)cs3)o2)no1,"inconclusive [inhibitor, partial curve]",
COc1cccc(C2CC(=O)Nc3c2ccc(C)c3C)c1OC (stereo unspecified),"inconclusive [inhibitor, single point]",
Cc1nc(-[n+]2nc(-c3ccncc3)nn2-c2ccccc2)sc1C,active: 1.84 µM,
CCc1cc(=O)oc2cc(OCC(=O)NCC3CCC(C(=O)O)CC3)ccc12 (stereo unspecified),inactive,

Structure (SMILES),Potency,"activity change, negative = growth inhibition"
CSc1ccc(CNC(=O)Cn2nc(N3CCN(c4ccccc4)CC3)ccc2=O)cc1,"inconclusive [inhibitor, single point]",
CCN1C(=O)c2cccc3c(S(=O)(=O)Nc4ccccc4OC)ccc1c23,active: 14.6 µM,
S=C(NCc1ccco1)Nc1cc(Cl)c(Cl)cc1Cl,"inconclusive [inhibitor, single point]",
O=C(CC1CC1)Nc1ccc2c(c1)[C@H]1C[C@H](CC(=O)N3CCc4ccccc4C3)O[C@@H](CO)[C@H]1O2,inactive,
Cc1nnc(SCC(=O)NCc2ccccc2Cl)[nH]c1=O,inactive,
O=C(Nc1ccc(F)c(Cl)c1)c1ccc2sc([C@H]3C[C@H](O)[C@@H](CO)O3)nc2c1,active: 20.6 µM,
CC(C)Nc1ncnc2c1ncn2[C@H]1CN(CCN2CCOCC2)C[C@@H](CO)O1,inactive,
CCOc1ccc(S(=O)(=O)N2CCN(c3ccccn3)CC2)cc1,"inconclusive [inhibitor, single point]",
O=C(N/N=C/c1sc(N2CCOCC2)nc1-c1ccccc1)c1ccccc1F,"inconclusive [inhibitor, single point]",
CC(C)(C)OC(=O)NCCCCCNC(=O)c1nc[nH]c1C(=O)NCc1ccccc1,"inconclusive [inhibitor, single point]",
CCc1noc(C)c1C(=O)OC(C)C(=O)Nc1cc([N+](=O)[O-])ccc1OC (stereo unspecified),"inconclusive [inhibitor, partial curve]",
Cc1ccc(NC(=O)CN(C)Cc2ccc(F)cc2)c([N+](=O)[O-])c1,"inconclusive [inhibitor, single point]",
CCN1CCN(C(c2ccc(OC)cc2)C(O)C(=O)c2c[nH]c3ccccc23)CC1 (stereo unspecified),inactive,
COC(=O)c1c(-c2ccccc2)nn(-c2ccccc2)c1C(=O)OC,"inconclusive [inhibitor, single point]",
CCOC(=O)C1=CN(Cc2ccco2)S(=O)(=O)N(C)C1c1ccccc1 (stereo unspecified),"inconclusive [inhibitor, single point]",
Cc1ccc(S(=O)(=O)CCSc2n[nH]c(=O)n2-c2ccccc2)cc1,"inconclusive [inhibitor, single point]",
O=C(Nc1nccs1)c1sc2ccccc2c1Cl,active: 20.6 µM,
COc1cccc(NC(=O)CSc2nnc(-c3cccc(OC)c3)o2)c1,"inconclusive [inhibitor, partial curve, poor fit]",
Cc1ccc(NC(=O)CSc2ncc(-c3ccccc3)[nH]2)cc1,"inconclusive [inhibitor, single point]",
COc1ccc(NS(=O)(=O)c2cccc(C(=O)NNC(=O)c3ccccc3O)c2)cc1,"inconclusive [inhibitor, single point]",
O=C(Nc1cccc(Cl)c1N1CCCC1)c1cccc(-c2cc3ccccc3oc2=O)c1,"inconclusive [inhibitor, single point]",
CCCCC(=O)Nc1cnc(NC(=O)c2cccs2)cc1C,inactive,
CCCCNC(=O)CSc1nc2nc(C)c(Cc3c(F)cccc3Cl)c(C)n2n1,"inconclusive [inhibitor, single point]",
O=[N+]([O-])c1cccc(-c2cn3nc(-c4ccccc4)c(-c4ccccc4)nc3n2)c1,"inconclusive [inhibitor, single point]",

Structure (SMILES),Potency,"activity change, negative = growth inhibition"
CCC(=O)N1CCc2cc(CNC(=O)c3ccccc3C)ccc21,"inconclusive [inhibitor, single point]",
COc1ccccc1NS(=O)(=O)c1ccc(NC(=O)c2ccccn2)cc1,"inconclusive [inhibitor, single point]",
CC(=O)/C=C/c1ccc(C)o1,"inconclusive [inhibitor, single point]",
CCCNC(=O)c1oc2ccc3c(c2c1C)C(=O)CC(C)(C)O3,"inconclusive [inhibitor, single point]",
COc1ccc(-c2nc(CSCC(=O)N3CCc4ccccc4C3)c(C)o2)cc1OC,active: 20.6 µM,
COc1cccc(C(=O)NCC(c2ccco2)N2CCOCC2)c1 (stereo unspecified),inactive,
Cc1ccccc1C(=O)OC1CCN(C)CC1,inactive,
Cc1ccc2sc(-c3ccc(N)cc3)nc2c1,"inconclusive [inhibitor, partial curve, poor fit]",
C[C@H]1CN([C@@H](C)CO)C(=O)c2cccc(NC(=O)c3ccc(-c4nccs4)cc3)c2O[C@@H]1CN(C)C(=O)NC1CCCCC1,"inconclusive [inhibitor, single point]",
O=C(Nc1ccc2nc(SCC(=O)N3CCc4ccccc43)sc2c1)c1ccccc1,active: 2.31 µM,
NC(=S)c1cc2ccc(O)cc2oc1=O,inactive,
CCCCCn1c(-c2ccco2)nc2nc3ccccc3nc21,"inconclusive [inhibitor, single point]",
CC(C)N(C(=O)[C@H]1C[C@H](CC(=O)NCCN2CCOCC2)C(=O)N2CCc3c([nH]c4ccc(Cl)cc34)[C@]12C)C(C)C,"inconclusive [inhibitor, single point]",
O=C(Nc1cc2c(cc1C(=O)c1ccccc1Br)OCCO2)c1ccccc1,inactive,
Cc1ccc(Cl)cc1N1CCN(C(=O)c2cnn(C)c2C2CCN(C(=O)OC(C)(C)C)CC2)CC1,active: 5.8 µM,
Cc1ccc(-c2nnc(Nc3ccccc3O)c3ccccc23)cc1,"inconclusive [inhibitor, single point]",
CC(=O)Nc1ccc(S(=O)(=O)NNc2cccc(C)c2)cc1,"inconclusive [inhibitor, single point]",
Cc1cc2nc(-c3cccc(Cl)c3)c(CC3CCCCC3)n2c(C)c1Br,"inconclusive [inhibitor, single point]",
Cc1cc(C)n(-c2cc(N3CCOCC3)nc(-c3ccccc3)n2)n1,,inconclusive: -31.2% [inhibitor]
COc1ccc(OC)c(NC(=O)C2(C)CCN2Cc2cccc(OC)c2F)c1 (stereo unspecified),"inconclusive [inhibitor, single point]",
O=C(C1CCC(Cn2c(=O)c3sccc3n(Cc3ccccc3)c2=O)CC1)N1CCOCC1 (stereo unspecified),"inconclusive [inhibitor, single point]",
Cc1ccc(OCC(=O)Nc2ccccc2C(=O)OCc2cc(=O)n3ccsc3n2)cc1,inactive,
O=C(NC1CC(=O)N(c2cccc(F)c2)C1)c1ccc2c(c1)OCO2 (stereo unspecified),inactive,
